According to paper PMC12291137, “Designing Catalysts to Accelerate a Protein–Peptide Assembly-Reaction Cascade” (ACS Central Science, 2025):

Experiments:
[1] = biological target: catalyst C (CaM-SrtA), fusion of calmodulin and sortase A; experiment: microkinetic model fitted to reaction kinetics (SDS-PAGE densitometry); settings: both partners purified
[2] = biological target: calmodulin (CaM) (UniProt P0DP23); experiment: ITC; CaM (200 μM) titrated into B or P (18 μM); the paper calls K_a(c) an apparent binding constant; settings: both partners purified

B1: substrate B (SpyCatcher-M13-LPETG-SpyTag(DA)), with the original M13 (M13-1) (other)
chain: not shown
Question: Which results are given for B1?
Answer: koff [1]: 0.01 s⁻¹; kon [1]: 4800 M⁻¹ s⁻¹; Ka [2]: 480000 M⁻¹
